# Data taken from PubChem BioAssay AID485360 (National Center for Advancing Translational Sciences (NCATS), 2010).
# Among all 230,000 compounds or so, about 1,500 (0.65%) were called active. Inconclusive means that the source gave no clear call. Such entries were picked first, then a sample of the others. Calls come from the whole dose curve; as a rule, active = well fitted inhibition curve with a large enough effect; inconclusive = small, poorly fitted or top-dose-only effect; inactive = no such curve, though single readings can be large or run the other way. Where the call is inconclusive, the potency comes from a doubtful curve fit.
# Biological target: Lethal(3)malignant brain tumor-like protein 1 (Homo sapiens) (UniProt Q9Y468)
# Chain of UniProt Q9Y468 (Q9Y468 whole entry, looked up): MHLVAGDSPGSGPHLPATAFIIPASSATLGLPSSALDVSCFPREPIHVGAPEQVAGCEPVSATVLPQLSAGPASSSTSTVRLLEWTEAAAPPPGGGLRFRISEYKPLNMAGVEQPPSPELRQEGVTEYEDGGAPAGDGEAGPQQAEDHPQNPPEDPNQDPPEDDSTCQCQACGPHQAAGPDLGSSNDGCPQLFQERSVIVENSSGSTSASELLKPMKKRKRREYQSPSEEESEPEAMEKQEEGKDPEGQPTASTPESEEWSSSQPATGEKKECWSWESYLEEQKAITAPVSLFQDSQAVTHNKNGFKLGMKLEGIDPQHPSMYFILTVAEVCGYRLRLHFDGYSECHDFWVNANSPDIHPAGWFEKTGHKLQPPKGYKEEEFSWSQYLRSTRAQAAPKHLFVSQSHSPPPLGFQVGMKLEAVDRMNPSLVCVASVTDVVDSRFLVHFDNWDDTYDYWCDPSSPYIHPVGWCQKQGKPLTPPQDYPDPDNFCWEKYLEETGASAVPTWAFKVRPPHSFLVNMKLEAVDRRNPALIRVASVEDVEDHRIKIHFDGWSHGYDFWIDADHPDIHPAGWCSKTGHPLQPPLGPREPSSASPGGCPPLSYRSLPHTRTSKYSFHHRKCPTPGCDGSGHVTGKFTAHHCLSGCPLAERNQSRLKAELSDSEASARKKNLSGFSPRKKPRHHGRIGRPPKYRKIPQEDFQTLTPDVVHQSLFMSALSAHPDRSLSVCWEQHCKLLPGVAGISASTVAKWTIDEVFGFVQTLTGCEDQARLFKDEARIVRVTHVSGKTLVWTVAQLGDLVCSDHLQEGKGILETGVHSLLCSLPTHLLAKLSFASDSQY
# Experiment: qHTS Assay for the Inhibitors of L3MBTL1; note: nearly all actives have a fitted effect of over 60% in size
# Conditions: AlphaScreen L3MBTL1–H3K9me1 peptide binding; series mostly up to 57.1 µM
# Procedure, shortened: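 First, the protein-peptide complex forms for 30 min at room temperature (L3MBTL1 50 nM, biotinylated H3K9me1 peptide 75 nM). Next, compounds are pin-transferred and incubated 30 min. Finally, AlphaScreen beads are added and read after 30 min.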
# Potency is the fitted concentration of half-maximal effect; tags give direction and shape of the fitted curve.
row,Compound,Potency
1,CCOC(=O)c1nnc(-c2ccccc2)nc1N1CCSCC1,"inconclusive: 31.6 µM [inhibitor, single point]"
2,Cc1ccccc1C1c2[nH]c3ccccc3c2CCN1Cc1cccn1-c1ncccn1 (stereo not given),"inconclusive: 28.2 µM [inhibitor, partial curve]"
3,COc1ccc(N2CCN(c3oc(-c4ccccc4OC)nc3C#N)CC2)cc1,"inconclusive: 8.91 µM [inhibitor, single point]"
4,COc1cc2c3c(c1OC)C1(C=CC(=NO)C=C1)CC3N(C(C)=O)CC2 (stereo not given),"inconclusive: 5.62 µM [inhibitor, single point]"
5,CC[C@]1(C(=O)OC)[C@H]2C(=O)N(Cc3ccccc3)C(=O)[C@H]2[C@H]2CN=C(SCC3CC3)N21,inactive
6,COc1ccccc1N1CCN(CC(=O)Nc2ccc(Cl)c(C(F)(F)F)c2)CC1,"inconclusive: 7.94 µM [inhibitor, single point]"
7,O=C(Nc1ccc(F)cc1)c1cccc(N2C(=O)C3C4CCC(C4)C3C2=O)c1 (stereo not given),inactive
8,O=C1CCC(=O)N1c1nc2n(n1)C(c1ccccc1)C=C(c1ccc(Br)cc1)N2 (stereo not given),"inconclusive: 39.8 µM [inhibitor, single point]"
9,O=C(CCNc1ccc(Cc2ccncc2)cc1)c1ccc([N+](=O)[O-])cc1,"inconclusive: 22.4 µM [inhibitor, partial curve]"
10,CN1C(CC(=O)Nc2ccc(Br)cc2)c2ccccc2CC1(C)C (stereo not given),"inconclusive: 0.1 µM [inhibitor, full curve, poor fit]"
11,Cc1ccnc(NC(=O)c2ccc([N+](=O)[O-])o2)c1,inactive
12,COc1ccc(S(=O)(=O)Nc2cccc(-c3ccc4nncn4n3)c2)c(OC)c1,"inconclusive: 0.708 µM [inhibitor, single point]"
13,O=C(/C=C/c1ccco1)Nc1cccc(NC(=O)/C=C/c2ccco2)n1,"inconclusive: 31.6 µM [inhibitor, single point]"
14,Cc1ccc(-n2nc(-c3ccco3)cc2C(=O)O)c(C)c1,active: 7.94 µM
15,CCOc1cc(/C=C2\SC(=S)N(Nc3ccccc3)C2=O)ccc1O,"inconclusive: 31.6 µM [inhibitor, single point]"
16,COc1ccc(C2C(C#N)=C(N)OC3=C2C(=O)CC(C)(C)C3)cc1OC (stereo not given),inactive
17,COc1cc(OC)c2c(-c3cccc(-c4ccc(N(C)C)cc4)c3)cc(=O)oc2c1,"inconclusive: 35.5 µM [inhibitor, single point]"
18,NS(=O)(=O)c1ccc(N=Nc2c[nH]c(=O)c(O)c2)cc1,"inconclusive: 39.8 µM [inhibitor, single point]"
19,Cc1[nH]c(=O)[nH]c1C(=O)CCCCC(=O)O,active: 0.355 µM
20,COC(=O)C(NC(C)=O)(Nc1ccc(C)cn1)C(F)(F)F (stereo not given),"inconclusive: 3.98 µM [inhibitor, partial curve]"
21,O=C(Nc1cccc(Cl)c1Cl)C1CCN(c2ncccn2)CC1,inactive
22,O=C1C=C(Nc2ccc(O)cc2)CC(c2ccco2)C1 (stereo not given),"inconclusive: 35.5 µM [inhibitor, partial curve]"
23,O=C1CC(=O)N(CCc2ccccc2)C(=O)N1CCc1ccccc1,"inconclusive: 5.62 µM [inhibitor, single point]"
24,CCn1nnnc1SCC(=O)Nc1ccc(OC)cc1,"inconclusive: 5.01 µM [inhibitor, single point]"

row,Compound,Potency
1,CCOc1ccccc1OCC(=O)Nc1ccccc1C(=O)NC1CC1,inactive
2,COc1ccc(/C=C/C(=O)O)cc1S(=O)(=O)N1CCC(C)CC1,"inconclusive: 25.1 µM [inhibitor, single point]"
3,C=CCN1C(c2ccccc2)=CS/C1=C(\C#N)c1nnc2n1CCCCC2,inactive
4,O=C(N/N=C/c1cc(Br)ccc1O)C(=O)Nc1ccccc1OC(F)(F)C(F)F,inactive
5,Cc1ccc(NC(=O)COc2coc(CN3CCc4ccccc43)cc2=O)cc1Cl,"inconclusive: 20 µM [inhibitor, partial curve]"
6,CCOC(=O)C1=C(C)NC(=O)NC1c1cc2c(cc1Br)OCO2 (stereo not given),"inconclusive: 6.31 µM [inhibitor, single point]"
7,Nc1c(C(=O)NCc2cccnc2)sc(=S)n1-c1ccccc1,inactive
8,COc1ccc(Cn2c(SCc3cc(C)ccc3C)nc3cc(OC)c(OC)cc3c2=N)cc1,inactive
9,CCCSc1nc(NCc2ccco2)c2c3c(sc2n1)COC(C)(C)C3,inactive
10,COc1ccc(C(=O)COC(=O)c2ccc(Cl)nc2)c(OC)c1,"inconclusive: 35.5 µM [inhibitor, single point]"
11,O=C(Nc1cc(Cl)cc(Cl)c1)c1coc(=O)c(Br)c1,"inconclusive: 39.8 µM [inhibitor, single point]"
12,N#CC(C#N)=Cc1ccc(OC(=O)c2ccccn2)cc1,active: 25.1 µM
13,CCCCC(=O)Nc1ccc(C(N)=O)cc1,"inconclusive: 5.01 µM [inhibitor, single point]"
14,COc1ccc(NC(=O)c2cc3n(n2)C(C(F)(F)F)CC(c2ccc4c(c2)OCO4)N3)cc1OC (stereo not given),inactive
15,CCOCCCNC(=O)C(c1ccc(C)cc1)N(Cc1ccc2c(c1)OCO2)C(=O)CNC(C)=O (stereo not given),"inconclusive: 4.47 µM [inhibitor, single point]"
16,CC(C)Oc1cccc(C(=O)NC(=S)N2CCN(c3ccc(C(F)(F)F)cc3[N+](=O)[O-])CC2)c1,"inconclusive: 17.8 µM [inhibitor, partial curve]"
17,N#Cc1nc(COc2ccc(Br)cc2)oc1N1CCCC1,"inconclusive: 14.1 µM [inhibitor, partial curve]"
18,CCN1CCc2c(sc(NC(=O)Cc3ccccc3)c2C(=O)OC)C1,"inconclusive: 39.8 µM [inhibitor, single point]"
19,O=C(CSc1cccc2cccnc12)Nc1ccc(S(=O)(=O)N2CCOCC2)cc1,active: 22.4 µM
20,NS(=O)(=O)c1ccc(-c2c(-c3ccccc3)sc3ccccc23)cc1,"inconclusive: 35.5 µM [inhibitor, single point]"
21,Cc1cc(C(=O)Nc2ccc(N3CCCC3)c(Cl)c2)ccc1[N+](=O)[O-],"inconclusive: 15.8 µM [inhibitor, partial curve]"
22,COc1cc(CNc2ccc(N3CCCCC3)cc2)ccc1OCC(=O)NC(C)(C)C,"inconclusive: 25.1 µM [inhibitor, partial curve]"
23,CC1(C)N([O-])C2=C(CCCC2)[N+]1=O,"inconclusive: 25.1 µM [inhibitor, partial curve]"
24,O=C1OC(c2ccc(Br)cc2)=N/C1=C\c1ccco1,"inconclusive: 39.8 µM [inhibitor, single point]"

row,Compound,Potency
1,O=C(O)c1ccc(N2C(=O)CC(Cc3ccccc3)C2=O)cc1 (stereo not given),"inconclusive: 0.708 µM [inhibitor, single point]"
2,CN(/C=C/C(=C/C=[N+](C)c1ccccc1)OCCCS(=O)(=O)[O-])c1ccccc1,"inconclusive: 39.8 µM [inhibitor, single point]"
3,Cc1ccc(-c2nc(=S)c3c(n2Cc2ccco2)CCCC3)cc1,inactive
4,O=C(Nc1nc(-c2ccccn2)cs1)c1cccc(S(=O)(=O)N2CCOCC2)c1,"inconclusive: 0.794 µM [inhibitor, full curve, poor fit]"
5,CCc1ccccc1NC(=O)CSc1nc2n[nH]c(C)c2c(=N)n1-c1cccc(OC)c1,inactive
6,CC/C(=N\O)C(C)(C)/[N+]([O-])=C/c1ccc(Br)cc1,"inconclusive: 5.01 µM [inhibitor, single point]"
7,CCN1CCN(C(c2cccnc2)c2cc(Cl)c3cccnc3c2O)CC1 (stereo not given),"inconclusive: 35.5 µM [inhibitor, single point]"
8,CCn1c(/C(C#N)=N/O)nc2ccccc21,"inconclusive: 31.6 µM [inhibitor, partial curve]"
9,CCCCC(C(=O)O)C(C)CC(=O)NNC(=O)c1ccco1 (stereo not given),inactive
10,CC(Cc1cccnc1)NC(=O)c1ccccc1OC1CCN(S(C)(=O)=O)CC1 (stereo not given),"inconclusive: 8.91 µM [inhibitor, partial curve]"
11,CC(C)NC(=S)N/N=C/c1cc(Br)ccc1O,"inconclusive: 39.8 µM [inhibitor, single point]"
12,CCn1c(C)nc2cc(C(=O)N/N=C/c3ccc(N4CCOCC4)cc3)ccc21,inactive
13,Cc1ccc(S(=O)(=O)N2CCN(C(=O)CSc3ncn[nH]3)CC2)cc1,inactive
14,Cn1ccnc1SCC(=O)Nc1ccc2c(c1)OCO2,"inconclusive: 35.5 µM [inhibitor, single point]"
15,CCOC(=O)CSc1nnc(CNC(=O)c2ccc(S(=O)(=O)N3CCCC3)cc2)n1C,"inconclusive: 3.16 µM [inhibitor, partial curve]"
16,CCCOc1ccc(/C(O)=C2/C(=O)C(=O)N(CCCN3CCOCC3)C2c2ccncc2)cc1 (stereo not given),"inconclusive: 17.8 µM [inhibitor, partial curve]"
17,CN(C)c1ccc(/C=N/NC(=S)NCc2ccccc2)cc1,"inconclusive: 28.2 µM [inhibitor, single point]"
18,COc1ccc(OC)c2c1nc1n2CCS1,inactive
19,C=CCOc1ccccc1/C=c1\sc2nc(=O)c(C)nn2c1=O,"inconclusive: 31.6 µM [inhibitor, partial curve]"
20,Nc1cccnc1-n1nc(C(F)(F)F)cc1C(F)(F)F,"inconclusive: 8.91 µM [inhibitor, partial curve]"
21,Cc1cc(C)cc(S(=O)(=O)c2cnc3ccccc3n2)c1,inactive
22,CCN(CC(=O)Nc1c(C(=O)OC)[nH]c2ccccc12)c1ccc2c(c1)OCO2,active: 25.1 µM
